From PubChem BioAssay AID1347120 (National Center for Advancing Translational Sciences (NCATS), 2019)
Several values for one entry are separate records, joined by “and”; a condition that tells them apart may be missing. Identical values can stand only once. The campaign covered roughly 390,000 compounds. About 930 (0.24%) were called active. The shares of active, inactive and inconclusive entries below differ from those in the screen. Calls come from the whole dose curve; as a rule, active = well fitted activation curve with a large enough effect; inconclusive = small, poorly fitted or top-dose-only effect; inactive = no such curve, though single readings can be large or run the other way. Potencies beside an inconclusive call are fits to weak or partial responses and may not hold up.
Potency is the fitted concentration of half-maximal effect; tags give direction and shape of the fitted curve.

Test: qHTS for Suppressors of FUS Proteinopathy: Primary screen using FUS-linked yeast assay; note: nearly all actives have a fitted effect of over 55% in size;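 for growth rescue (activation): plate controls were DMSO vehicle for no effect and reference control for full effect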
Details: S. cerevisiae FUS-expressing, OD600, 24 h; Potency: growth rescue; growth rescue (activation): at 76.6 µM (top of the series)
Summary of the method: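 Cultures pregrown in 2.5% raffinose medium are shifted to minimal medium containing 2% galactose to express toxic FUS. Compounds are tested at several concentrations. After 24hr at 30C, growth is quantified at 600 nm absorbance.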
In the case of `CC1=C(C(N)=O)C(c2cccc(OCc3ccccc3)c2)n2nnnc2N1` (stereo not drawn), the Potency is reported as inconclusive: 3.55 µM [activator, full curve, poor fit]. For `C=CCN1C(c2cccc(C(F)(F)F)c2)=CS/C1=C(\C#N)c1nnc(N2CCOCC2)n1-c1ccccc1`, the Potency was inconclusive: 35.5 µM [activator, single point]. With `Cc1cc(C)c(NC(=O)CN(c2ccccc2)S(=O)(=O)N(C)C)c(C)c1` the Potency was inconclusive: 25.1 µM [activator, partial curve]. For `O=[N+]([O-])c1ccc(S(=O)(=O)NCC2CC3CCC2C3)cc1` (stereo not drawn), the “growth rescue (activation)” value was inactive: -6.93%. With `O=C(NNC(=O)c1csc(-c2cccs2)n1)c1ccc(Cl)cc1` the “growth rescue (activation)” value was inactive: 6.4%. For `Cc1cc(C)c(S(=O)(=O)NCC2CCC(C(=O)NCc3ccccn3)CC2)c(C)c1` (stereo not drawn), the Potency was inconclusive: 28.2 µM [activator, partial curve, poor fit]. For `O=S(=O)([N-]c1nc2ccccc2nc1-[n+]1ccccc1)c1ccccc1`, the “growth rescue (activation)” value was inactive: 12.9%. In the case of `O=C(Nc1nc(-c2ccc3c(c2)OCCO3)cs1)c1ccc(S(=O)(=O)N2CCCCC2)cc1`, the Potency is reported as inconclusive: 12.6 µM [activator, partial curve]. In the case of `COc1ccc(N2CCN(C(=O)Cn3cnc4sc(C)c(S(=O)(=O)N5CCC(C)CC5)c4c3=O)CC2)cc1`, the “growth rescue (activation)” value is reported as inactive: -3.5%. In the case of `O=C(Nc1ccc(C(O)(C(F)(F)F)C(F)(F)F)cc1)c1ccc(Cl)cc1`, the “growth rescue (activation)” value is reported as inactive: 0.23%. In the case of `CCOc1ccc(S(=O)(=O)N2Cc3ccccc3CC2C(=O)O)cc1` (stereo not drawn), the Potency is reported as inconclusive: 22.4 µM [activator, partial curve, poor fit]. For `CN(C(=O)COC(=O)c1cccc(S(=O)(=O)N(C)c2ccccc2)c1)C1CCCCC1`, the Potency was inconclusive: 28.2 µM [activator, single point]. With `CCN(CC)S(=O)(=O)c1ccc2c(c1)nc(SCC(=O)N1CCCCCC1)n2-c1ccc(OC)cc1` the Potency was inconclusive: 20 µM [activator, partial curve, poor fit]. For `CCCCNC[C@@]12CO[C@H](c3ccc(Cl)cc3)N1[C@@H](c1ccc(Cl)cc1)SC2`, the “growth rescue (activation)” value was inactive: -4.2%. With `CCOc1ccc(-c2nc(C#N)c(NCc3ccc4c(c3)OCO4)o2)cc1` the “growth rescue (activation)” value was inactive: 2.41%. In the case of `CCCNc1nc(-c2ccccc2)c(C(=O)OCC)cc1C#N`, the Potency is reported as inconclusive: 44.7 µM [activator, single point]. For `C#CCN(C[C@H]1[C@H](OC(=O)NC2CCCC2)[C@H](OC(=O)NC2CCCC2)C[C@@H](C(=O)OC)[C@H]1C(=O)OC)S(=O)(=O)c1ccc(C)cc1`, the Potency was inconclusive: 25.1 µM [activator, partial curve]. With `COc1ccc(C(CC(=O)NC(C)c2ccc(-c3ccccc3)cc2)NC(C)=O)cc1` (stereo not drawn) the Potency was inconclusive: 25.1 µM [activator, partial curve, poor fit]. In the case of `CC1(C(=O)Nc2ccccc2)CCN1C(=O)Cc1ccc(-c2ccccc2)cc1` (stereo not drawn), the Potency is reported as inconclusive: 50.1 µM [activator, single point]. For `Cc1cc(NC(=O)CSc2nnc(-c3ccc(Cl)s3)o2)no1`, the Potency was inconclusive: 0.891 µM [activator, full curve, poor fit]. For `CCn1c(CCC(=O)Nc2nc3c(s2)CCCC3)nc2cc(S(=O)(=O)N(C)C)ccc21`, the Potency was inconclusive: 44.7 µM [activator, partial curve, poor fit]. With `CCCCN(C)CCNC(=O)c1cc2c(-c3ccccc3F)nn(C)c2s1` the “growth rescue (activation)” value was inactive: 23.5%. In the case of `CCc1ccc(C(=O)CN2C(=O)NC3(CCOc4ccccc43)C2=O)s1` (stereo not drawn), the Potency is reported as inconclusive: 20 µM [activator, partial curve]. For `CCCCN(CCNP(=O)(OCC)OCC)CP(=O)(OCC)OCC`, the Potency was inconclusive: 11.2 µM [activator, partial curve, poor fit]. In the case of `Cc1ccc(N(Cc2cc(=O)[nH]c3ccccc23)C(=O)C(C)C)c(C)c1`, the Potency is reported as inconclusive: 15.8 µM [activator, partial curve, poor fit]. In the case of `CC(=O)N1c2ccc(S(=O)(=O)N3CCC(C(=O)N4CCN(c5cccc(C(F)(F)F)c5)CC4)CC3)cc2CC1C` (stereo not drawn), the Potency is reported as inconclusive: 31.6 µM [activator, single point]. For `CC1(C(=O)Nc2cccc(OC(F)(F)F)c2)Cc2c(-c3ccc4c(c3)OCO4)ccnc2O1` (stereo not drawn), the “growth rescue (activation)” value was inactive: 30.6%. In the case of `O=C(Nc1ccccc1)C1=C[C@H](c2csc3ccccc23)C[C@H](OCCCCO)O1`, the Potency is reported as inconclusive: 31.6 µM [activator, single point]. In the case of `COc1ccc2c(c1)CCc1c(C(=O)Nc3c(C)nn(Cc4ccccc4Cl)c3C)noc1-2`, the Potency is reported as inconclusive: 22.4 µM [activator, single point]. In the case of `Nn1c(SCc2cccc(Oc3ccccc3)c2)nnc1C(F)(F)F`, the “growth rescue (activation)” value is reported as inactive: 5.29%. In the case of `CCn1c(SCC(=O)NC2CCCCC2)nnc1-c1cccs1`, the “growth rescue (activation)” value is reported as inactive: 11%. In the case of `COc1ccc2ccccc2c1CN1CCCC(CO)C1` (stereo not drawn), the “growth rescue (activation)” value is reported as inactive: 1.58%. For `Fc1ccccc1C1c2[nH]c3ccccc3c2CCN1Cc1cccn1-c1ncccn1` (stereo not drawn), the “growth rescue (activation)” value was inactive: -0.961%. In the case of `O=S(=O)(c1ccc(Cl)cc1)c1nc(-c2ccccc2Br)oc1N1CCOCC1`, the Potency is reported as inconclusive: 50.1 µM [activator, single point]. In the case of `CO[C@H]([C@H](C)/C=C/N(C)C=O)[C@@H](C)C(O)CC[C@H](C)[C@H](O)[C@H](C)[C@H]1OC(=O)/C=C/C(C)=C/C[C@H](O)C[C@@H]2C=CC[C@@H](C[C@H](OC)[C@@]3(CO3)[C@@H](OC)C[C@@H](OC)[C@@H]1C)O2` (stereo partly drawn), the Potency is reported as inconclusive: 11.2 µM [activator, partial curve, poor fit]. With `Cc1cc(NC(=O)CCC(=O)N(CC(=O)NC2CCCC2)c2ccc(C(C)C)cc2)no1` the Potency was inconclusive: 12.6 µM [activator, partial curve]. With `O=C(c1cc(COc2c(F)cccc2F)on1)N1CC[C@@H]2CCCC[C@H]2C1` the Potency was inconclusive: 25.1 µM [activator, partial curve]. With `Cc1ccc(NC(=O)CCc2c(C)nn(-c3ccc(N4CCCCC4)nn3)c2C)cc1F` the Potency was inconclusive: 44.7 µM [activator, partial curve, poor fit] and inconclusive: 28.2 µM [activator, partial curve].
